# Assay results published in PubChem BioAssay AID504832 (National Center for Advancing Translational Sciences (NCATS), 2011).
# Out of some 310,000 compounds screened, about 18,000 (5.8%) were called active. The shares of active, inactive and inconclusive entries below differ from those in the screen. The call rests on the fitted dose curve; in most records, active means well fitted inhibition curve with a large enough effect; inconclusive means small, poorly fitted or top-dose-only effect, or another doubt; inactive means no such curve, though single readings can be large or run the other way. Potencies of inconclusive entries are left out as doubtful fits.
# Experiment: Primary qHTS for delayed death inhibitors of the malarial parasite plastid, 48 hour incubation
# Details: P. falciparum luciferase growth in erythrocytes; series mostly up to 28.7 µM
# How it was run: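 Luciferase-expressing P. falciparum in infected erythrocytes (2% hematocrit, 0.1% parasitemia final) in RPMI 1640/0.5% Albumax were exposed to compound for 48 hours at 37 C, 5% CO2; growth read as luminescence.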
# Potency means the concentration at half of the fitted maximal effect; tags describe the fitted curve by direction and shape.
row,SMILES,Potency
1,C/C(=C\c1csc(C)n1)[C@@H]1C[C@@H]2O[C@]2(C)CCC[C@H](C)[C@H](O)[C@@H](C)C(=O)C(C)(C)[C@@H](O)CC(=O)O1,active: 0.0013 µM
2,CS(=O)(=O)N(Cc1ccc(C(=O)NC2CCCCC2O)cc1)c1ccccc1 (centres undefined),"inconclusive [inhibitor, full curve, poor fit]"
3,O=C(/C=C/c1ccc(Cl)cc1)NC(=S)Nc1ccc(CN2CCOCC2)cc1,inactive
4,COc1cc(CNC(C)C23CC4CC(CC(C4)C2)C3)ccc1OCC(=O)NC(C)(C)C (centres undefined),active: 10.4 µM
5,O=c1cc(-c2cc3ccccc3o2)c2cc(O)ccc2o1,"inconclusive [inhibitor, single point]"
6,O=C(CSc1ccc2nnc(-c3ccccn3)n2n1)Nc1cccc(F)c1,"inconclusive [inhibitor, single point]"
7,COc1ccc(NC(=O)C(NC(=O)c2ccc(=O)[nH]c2)c2ccc(OC)cc2)cc1 (centres undefined),inactive
8,Cc1cccc(Nc2ncnc3onc(-c4cccc(Cl)c4)c23)c1C,"inconclusive [inhibitor, partial curve, poor fit]"
9,CCC(=O)N1CCc2cc(S(=O)(=O)NCCC(=O)N3CC=C(c4ccccc4)CC3)ccc21,"inconclusive [inhibitor, full curve]"
10,CCOC(=O)C1=NN(c2ccccc2)C2(S1)SC(C(C)=O)=C(C)N2c1ccccc1 (centres undefined),inactive
11,COc1ccc2nc(/N=C\N(C)C)sc2c1,inactive
12,CCOc1ccccc1NC(=O)CSc1nc2ccccc2c(=O)n1CC1CCCO1 (centres undefined),"inconclusive [inhibitor, single point]"
13,CCC1(C)C(Nc2c(C)cccc2C)=NC(=S)N1c1ccc(NC(C)=O)cc1 (centres undefined),inactive
14,CCN1CCN(CCNC(=O)CCc2c(C)c3c(C)nn(-c4ccccc4)c3n(C)c2=O)CC1,"inconclusive [inhibitor, single point]"
15,CCCn1c(SCC(=O)Nc2cc(C(=O)O)ccc2C)nc2sc3c(c2c1=O)CCC3,inactive
16,O=C(CN1CCN(C(=O)c2cncn2-c2ccc(F)cc2)CC1)Nc1ccccc1C(F)(F)F,"inconclusive [inhibitor, single point]"
17,CC(C)C1NC(=S)N(C2CCCCC2)C1=O (centres undefined),inactive
18,COc1cc(C(Nc2ccc(S(=O)(=O)N3CCC(C)CC3)cc2)C(=O)NCC2CCCO2)cc(OC)c1OC (centres undefined),active: 13.1 µM
19,CCc1ccccc1NC(=O)NC1CC2CCC(C1)N2Cc1cccs1 (centres undefined),inactive
20,CC(C)CNC1=C(C(=S)Nc2ccccc2)C(=O)CC(C)(C)C1,"inconclusive [inhibitor, single point]"
21,O=c1c2ccccc2nnn1CSc1nnc(-c2cccc(S(=O)(=O)N3CCCCC3)c2)o1,"inconclusive [inhibitor, partial curve]"
22,N#Cc1ccccc1N1CCN(C(=O)c2ccc(NC(=O)c3ccc(Br)o3)cc2)CC1,"inconclusive [inhibitor, single point]"
23,CCN(CC)S(=O)(=O)c1ccc2c(c1)c(C(=O)O)cn2C,inactive

row,SMILES,Potency
1,CC(C)NC(=S)NN=C1c2ccccc2-c2ccccc21,inactive
2,CCNCC(=O)Nc1c(C)cccc1C,"inconclusive [inhibitor, single point]"
3,CC(NC(=O)/C(C#N)=C1\N=C(NC(=O)c2cccs2)c2ccccc21)c1ccccc1 (centres undefined),inactive
4,COc1cccc(NC(=O)CN(C)C(=O)c2cccc(S(=O)(=O)Nc3ccccc3OC)c2)c1,active: 13.1 µM
5,CC(=O)c1c(C)nn(CC(O)Cn2c3c(c4cc(C)ccc42)CCCC3=O)c1C (centres undefined),"inconclusive [inhibitor, single point]"
6,CCCn1cc2c3c(cccc31)C1CC(C)CN(C)C1C2 (centres undefined),"inconclusive [inhibitor, partial curve]"
7,CCCN(CCC)C(=S)NC(=O)c1ccc(Cl)cc1Cl,"inconclusive [inhibitor, partial curve, poor fit]"
8,CCOC(=O)CSc1nc2ccccc2c(=O)n1CCCCCC(=O)NCc1ccco1,active: 11.7 µM
9,CCC(=O)c1ccc(OCC(=O)N2CCN(S(=O)(=O)c3ccc(Cl)s3)CC2)cc1,"inconclusive [inhibitor, single point]"
10,CC(/C=C\C=C\c1ccccc1)=N\NC(=O)c1cncc(Br)c1,"inconclusive [inhibitor, single point]"
11,CC(C)c1nnc(NC(=O)CN(C)S(=O)(=O)c2ccc3c(c2)OCCO3)s1,"inconclusive [inhibitor, single point]"
12,Cc1cccc(C2c3[nH]c4ccccc4c3CCN2Cc2ccc(C)s2)n1 (centres undefined),"inconclusive [inhibitor, single point]"
13,Cc1cc(-n2c(C)cc(C(=O)CSc3nncn3C(C)C)c2C)no1,"inconclusive [inhibitor, single point]"
14,O=C(Nc1nnc(-c2ccccc2Cl)o1)c1ccc(S(=O)(=O)N2CCCCCC2)cc1,"inconclusive [inhibitor, single point]"
15,CCN(C(=O)CSc1nc2ccc([N+](=O)[O-])cc2s1)C1CCS(=O)(=O)C1 (centres undefined),"inconclusive [inhibitor, partial curve, poor fit]"
16,CC1Cc2nc(SCC(=O)N3CCCC3)n(C)c(=O)c2S1 (centres undefined),"inconclusive [inhibitor, partial curve]"
17,CCN1CCN(c2nc(N)c([N+](=O)[O-])c(Nc3ccc(C)cc3)n2)CC1,"inconclusive [inhibitor, single point]"
18,O=S(=O)(NCC(c1ccccc1)N1CCNCC1)c1ccc(Cl)cc1 (centres undefined),"inconclusive [inhibitor, single point]"
19,Cc1onc(-c2ccccc2)c1C(=O)N/N=C/c1ccccc1OC(C)C,inactive
20,Cc1ccc(C(C(=O)NC2CCCC2)N(C(=O)c2csnn2)C2CCCC2)o1 (centres undefined),"inconclusive [inhibitor, single point]"
21,CC(C)NC(=S)N1CCN(S(=O)(=O)c2cccc(C(F)(F)F)c2)CC1,"inconclusive [inhibitor, single point]"
22,CCc1nnc(NC(=O)COc2ccccc2[N+](=O)[O-])s1,inactive
23,COc1cccc(CNCCc2c[nH]c3ccccc23)c1OCc1ccc(F)cc1,"inconclusive [inhibitor, single point]"

row,SMILES,Potency
1,O=C(COc1ccccc1[N+](=O)[O-])Nc1cc(C(=O)O)cc(C(=O)O)c1,"inconclusive [inhibitor, full curve, poor fit]"
2,O=C(NCc1ccccn1)c1ccc2c(=O)n(CCc3ccccc3)c(=O)[nH]c2c1,"inconclusive [inhibitor, partial curve, poor fit]"
3,Clc1ccc(OCCn2ccnc2)c2ccccc12,"inconclusive [inhibitor, partial curve]"
4,COc1ccc(C2c3ccc(O)cc3Oc3ncn(Cc4ccco4)c(=N)c32)cc1 (centres undefined),"inconclusive [inhibitor, partial curve]"
5,COc1ccccc1NS(=O)(=O)c1ccc(C(=O)Nc2ncccc2O)cc1,active: 4.65 µM
6,O=C(COc1cccnc1[N+](=O)[O-])Nc1ccc2c(c1)OC(F)(F)O2,inactive
7,CCCCc1ccc(NC(=S)N2CCN(C(=O)c3ccco3)CC2)cc1,inactive
8,CCCCCC(=O)NNC(=S)NC(C)=O,"inconclusive [inhibitor, single point]"
9,O=C(Cn1cnc2ccccc2c1=O)Nc1ccc2c(c1)OCCO2,inactive
10,Cc1cc(C)c2c(n1)nn1c(NCCCN(C)C)cc(C)nc21,inactive
11,Cc1nn(-c2ccccc2)c2[nH]c(=O)c(CNc3ccc(N4CCOCC4)cc3)cc12,"inconclusive [inhibitor, single point]"
12,O=C(COC(=O)/C=C/C(=O)N1CCN(c2ccccc2)CC1)NC(c1ccccc1)c1ccccc1,inactive
13,CC1CCN(Cc2c(C(=O)N/N=C/c3ccccc3O)nnn2-c2nonc2N)CC1,"inconclusive [inhibitor, single point]"
14,Cc1ccc(S(=O)(=O)/N=c2\ccc(Cl)cn2C(F)F)cc1,inactive
15,O=C(Cn1cnc2cc([N+](=O)[O-])ccc2c1=O)NC(=O)NCc1ccccc1,"inconclusive [inhibitor, single point]"
16,CC(CCc1ccccc1)NCc1ccc(Cl)cc1Cl (centres undefined),"inconclusive [inhibitor, single point]"
17,CCn1c(SCC(=O)Nc2ccc(OC)c(S(=O)(=O)N3CCCCC3)c2)nnc1C1CC1,inactive
18,CC(C)C(=O)NS(=O)(=O)c1ccc(N)cc1,inactive
19,N#Cc1ccccc1S(=O)(=O)N1CCN(CC(=O)NCC2(N3CCOCC3)CCCCC2)CC1,"inconclusive [inhibitor, single point]"
20,C=C[C@H]1CN2CC[C@H]1C[C@@H]2[C@@H](O)c1ccnc2ccccc12,active: 0.0329 µM
21,CC(=O)c1ccc(N2CCN(C(=O)Cc3n[nH]c(=O)c4ccccc34)CC2)cc1,"inconclusive [inhibitor, partial curve, poor fit]"
22,N#Cc1c(C(F)(F)F)cc(-c2ccccc2)nc1SCCN1CCOCC1,"inconclusive [inhibitor, single point]"
23,CC(C)(C)OC(=O)N1CCC(c2c(C(=O)N3CCN(C(=O)c4ccco4)CC3)cnn2-c2ccc(F)cc2)CC1,"inconclusive [inhibitor, partial curve]"
